Reference: the supplement of paper PMC8728848
This is one part of the list.

Columns and labels:
Assay in all cases: glycan array binding signal (z-score within array); higher = stronger binding
Conditions in all cases: glycan notation: IUPAC condensed, linker removed
[1] = target: Neu5Ac(a2-3)Gal(b1-3)[Neu5Ac(a2-6)]GalNAc
How it was run: (§1)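 The Consortium for Functional Glycomics database supplied 3228 glycan arrays, of which those lacking an available protein sequence were dropped. The binding signal, a within-array Z-score, was averaged across arrays of the same protein sequence and across linkers. Negative scores can be read as non-binding.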

Neu5Ac(a2-3)Gal(b1-4)Glc = target: Neu5Ac(a2-3)Gal(b1-4)Glc
How it was run: as §1

[2] = target: Neu5Ac(a2-3)Gal(b1-4)GlcNAc
How it was run: as §1

[3] = target: Neu5Ac(a2-3)Gal(b1-4)GlcNAc(b1-3)Gal(b1-4)GlcNAc
How it was run: as §1

[4] = target: Neu5Ac(a2-3)Gal(b1-4)GlcNAc(b1-3)Gal(b1-4)GlcNAc(b1-3)Gal(b1-4)GlcNAc
How it was run: as §1

[5] = target: Neu5Ac(a2-3)Gal(b1-4)GlcNAc(b1-3)Gal(b1-4)[Fuc(a1-3)]GlcNAc
How it was run: as §1

[6] = target: Neu5Ac(a2-3)Gal(b1-4)GlcNAc6S
How it was run: as §1

[7] = target: Neu5Ac(a2-3)Gal(b1-4)[Fuc(a1-3)]GlcNAc
How it was run: as §1

[8] = target: Neu5Ac(a2-3)Gal(b1-4)[Fuc(a1-3)]GlcNAc(b1-3)Gal
How it was run: as §1

[9] = target: Neu5Ac(a2-3)Gal(b1-4)[Fuc(a1-3)]GlcNAc(b1-3)Gal(b1-4)GlcNAc
How it was run: as §1

[10] = target: Neu5Ac(a2-3)Gal(b1-4)[Fuc(a1-3)]GlcNAc(b1-3)Gal(b1-4)[Fuc(a1-3)]GlcNAc(b1-3)Gal(b1-4)[Fuc(a1-3)]GlcNAc
How it was run: as §1

[11] = target: Neu5Ac(a2-3)Gal(b1-4)[Fuc(a1-3)]GlcNAc6S
How it was run: as §1

[12] = target: Neu5Ac(a2-3)Gal6S(b1-4)GlcNAc
How it was run: as §1

[13] = target: Neu5Ac(a2-3)Gal6S(b1-4)[Fuc(a1-3)]GlcNAc
How it was run: as §1

Neu5Ac(a2-3)GalNAc = target: Neu5Ac(a2-3)GalNAc
How it was run: as §1

[14] = target: Neu5Ac(a2-3)GalNAc(b1-4)GlcNAc
How it was run: as §1

[15] = target: Neu5Ac(a2-3)[GalNAc(b1-4)]Gal(b1-4)Glc
How it was run: as §1

[16] = target: Neu5Ac(a2-3)[GalNAc(b1-4)]Gal(b1-4)GlcNAc
How it was run: as §1

[17] = target: Neu5Ac(a2-3)[Neu5Ac(a2-6)]GalNAc
How it was run: as §1

Neu5Ac(a2-6)Gal = target: Neu5Ac(a2-6)Gal
How it was run: as §1

Neu5Ac(a2-6)Gal(b1-4)Glc = target: Neu5Ac(a2-6)Gal(b1-4)Glc
How it was run: as §1

[18] = target: Neu5Ac(a2-6)Gal(b1-4)GlcNAc
How it was run: as §1

[19] = target: Neu5Ac(a2-6)Gal(b1-4)GlcNAc(b1-2)Man(a1-3)[Neu5Ac(a2-6)Gal(b1-4)GlcNAc(b1-2)Man(a1-6)]Man(b1-4)GlcNAc(b1-4)GlcNAc
How it was run: as §1

[20] = target: Neu5Ac(a2-6)Gal(b1-4)GlcNAc(b1-3)Gal(b1-4)GlcNAc
How it was run: as §1

[21] = target: Neu5Ac(a2-6)Gal(b1-4)GlcNAc(b1-3)Gal(b1-4)[Fuc(a1-3)]GlcNAc(b1-3)Gal(b1-4)[Fuc(a1-3)]GlcNAc
How it was run: as §1

[22] = target: Neu5Ac(a2-6)Gal(b1-4)GlcNAc6S
How it was run: as §1

Neu5Ac(a2-6)GalNAc = target: Neu5Ac(a2-6)GalNAc
How it was run: as §1

[23] = target: Neu5Ac(a2-6)GalNAc(b1-4)GlcNAc
How it was run: as §1

Neu5Ac(a2-8)Neu5Ac = target: Neu5Ac(a2-8)Neu5Ac
How it was run: as §1

[24] = target: Neu5Ac(a2-8)Neu5Ac(a2-3)Gal(b1-4)Glc
How it was run: as §1

[25] = target: Neu5Ac(a2-8)Neu5Ac(a2-3)[GalNAc(b1-4)]Gal(b1-4)Glc
How it was run: as §1

[26] = target: Neu5Ac(a2-8)Neu5Ac(a2-8)Neu5Ac
How it was run: as §1

[27] = target: Neu5Ac(a2-8)Neu5Ac(a2-8)Neu5Ac(a2-3)Gal(b1-4)Glc
How it was run: as §1

[28] = target: Neu5Ac(a2-8)Neu5Ac(a2-8)Neu5Ac(a2-3)[GalNAc(b1-4)]Gal(b1-4)Glc
How it was run: as §1

[29] = target: Neu5Ac(a2-8)Neu5Ac(a2-8)Neu5Ac(a2-8)Neu5Ac(a2-3)[GalNAc(b1-4)]Gal(b1-4)Glc
How it was run: as §1

Neu5Ac(b1-6)GalNAc = target: Neu5Ac(b1-6)GalNAc
How it was run: as §1

[30] = target: Neu5Ac(b2-6)Gal(b1-4)GlcNAc
How it was run: as §1

[31] = target: Neu5Ac9Ac(a2-6)Gal(b1-4)GlcNAc
How it was run: as §1

[32] = target: Neu5Gc(a2-3)Gal(b1-3)GlcNAc
How it was run: as §1

[33] = target: Neu5Gc(a2-3)Gal(b1-3)[Fuc(a1-4)]GlcNAc
How it was run: as §1

Neu5Gc(a2-3)Gal(b1-4)Glc = target: Neu5Gc(a2-3)Gal(b1-4)Glc
How it was run: as §1

[34] = target: Neu5Gc(a2-3)Gal(b1-4)GlcNAc
How it was run: as §1

[35] = target: Neu5Gc(a2-3)Gal(b1-4)[Fuc(a1-3)]GlcNAc
How it was run: as §1

[36] = target: Neu5Gc(a2-6)Gal(b1-4)GlcNAc
How it was run: as §1

Neu5Gc(a2-6)GalNAc = target: Neu5Gc(a2-6)GalNAc
How it was run: as §1

B1: CLL-1 (Homo sapiens) (protein)
chain: MWIDFFTYSSMSEEVTYADLQFQNSSEMEKIPEIGKFGEKAPPAPSHVWRPAALFLTLLCLLLLIGLGVLASMFHVTLKIEMKKMNKLQNISEELQRNISLQLMSNMNISNKIRNLSTTLQTIATKLCRELYSKEQEHKCKPCPRRWIWHKDSCYFLSDDVQTWQESKMACAAQNASLLKINNKNALEFIKSQSRSYDYWLGLSPEEDSTRGMRVDNIINSSAWVIRNAPDLNNMYCGYINRLYVQYYHCTYKKRMICEKMANPVQLGSTYFREA
- glycan array binding signal (z-score) [1]: -0.188
- glycan array binding signal (z-score) (Neu5Ac(a2-3)Gal(b1-4)Glc): -0.159
- glycan array binding signal (z-score) [2]: -0.14
- glycan array binding signal (z-score) [3]: -0.267
- glycan array binding signal (z-score) [4]: 2.45
- glycan array binding signal (z-score) [5]: -0.129
- glycan array binding signal (z-score) [6]: -0.124
- glycan array binding signal (z-score) [7]: -0.141
- glycan array binding signal (z-score) [8]: -0.209
- glycan array binding signal (z-score) [9]: -0.23
- glycan array binding signal (z-score) [10]: -0.181
- glycan array binding signal (z-score) [11]: -0.15
- glycan array binding signal (z-score) [12]: -0.159
- glycan array binding signal (z-score) [13]: -0.172
- glycan array binding signal (z-score) (Neu5Ac(a2-3)GalNAc): -0.037
- glycan array binding signal (z-score) [14]: 0.114
- glycan array binding signal (z-score) [15]: -0.256
- glycan array binding signal (z-score) [16]: -0.101
- glycan array binding signal (z-score) [17]: -0.261
- glycan array binding signal (z-score) (Neu5Ac(a2-6)Gal): -0.207
- glycan array binding signal (z-score) (Neu5Ac(a2-6)Gal(b1-4)Glc): -0.221
- glycan array binding signal (z-score) [18]: -0.184
- glycan array binding signal (z-score) [19]: -0.141
- glycan array binding signal (z-score) [20]: -0.266
- glycan array binding signal (z-score) [21]: -0.136
- glycan array binding signal (z-score) [22]: 0.188
- glycan array binding signal (z-score) (Neu5Ac(a2-6)GalNAc): -0.208
- glycan array binding signal (z-score) [23]: -0.17
- glycan array binding signal (z-score) (Neu5Ac(a2-8)Neu5Ac): -0.289
- glycan array binding signal (z-score) [24]: -0.168
- glycan array binding signal (z-score) [25]: -0.239
- glycan array binding signal (z-score) [26]: -0.267
- glycan array binding signal (z-score) [27]: -0.12
- glycan array binding signal (z-score) [28]: -0.211
- glycan array binding signal (z-score) [29]: -0.059
- glycan array binding signal (z-score) (Neu5Ac(b1-6)GalNAc): -0.172
- glycan array binding signal (z-score) [30]: -0.235
- glycan array binding signal (z-score) [31]: -0.216
- glycan array binding signal (z-score) [32]: -0.069
- glycan array binding signal (z-score) [33]: -0.281
- glycan array binding signal (z-score) (Neu5Gc(a2-3)Gal(b1-4)Glc): -0.229
- glycan array binding signal (z-score) [34]: -0.26
- glycan array binding signal (z-score) [35]: -0.167
- glycan array binding signal (z-score) [36]: -0.231
- glycan array binding signal (z-score) (Neu5Gc(a2-6)GalNAc): -0.107
